SMILES strings stand for the structures. Screen size: about 39,000 compounds; about 220 (0.56%) showed activity. This is one part of the list.
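Note: static incubation at 37 °C against the wild-type strain, values averaged over two biological replicates.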

The test concerns Escherichia coli K-12 BW25113. Put plainly: relative growth (OD600 normalised to plate interquartile mean) (fraction); higher = less growth inhibition, active = 0.2 or less. The conditions noted are these: 50 µM; LB; incubation time: overnight (16-24 h).
As for `C=CC[C@@H](CC(=O)N[C@H](CO)Cc1ccccc1)C(=O)NC[C@@H](OC(=O)[C@@H](CC=C)Cc1ccc(F)cc1)c1ccccc1`, the relative growth was inactive: 1.05.

For `O=C(C[C@H]1C[C@H]2c3cc(NC(=O)NC4CCCC4)ccc3O[C@H]2[C@@H](CO)O1)NCc1ccc2c(c1)OCO2`, the relative growth is inactive: 0.979.

`CNC[C@@H]1OCCCC[C@H](C)Oc2ccc(NC(=O)Nc3cccc4ccccc34)cc2C(=O)N([C@H](C)CO)C[C@@H]1C`: the relative growth was inactive: 0.986.

For the compound `COc1cccc(S(=O)(=O)N(C)C[C@H]2OCc3cn(nn3)CCCC(=O)N([C@@H](C)CO)C[C@H]2C)c1`, the relative growth is inactive: 1.01.

Take `C[C@H]1CN([C@@H](C)CO)C(=O)c2c(c3ccccc3n2C)-c2ccccc2CO[C@@H]1CN(C)Cc1ccc(C(=O)O)cc1`: the relative growth is inactive: 0.996.

`C=CCSCC(N)C(=O)O` (centres undefined): the relative growth is inactive: 1.03.

For the compound `C[C@@H]1CN([C@H](C)CO)C(=O)c2cc(NC(=O)Nc3cccc4ccccc34)ccc2O[C@H]1CN(C)CC1CCCCC1`, the relative growth was inactive: 0.989.

Take `CC(C)NC(=O)Nc1ccc2c(c1)C(=O)N([C@@H](C)CO)C[C@H](C)[C@@H](CN(C)C(=O)Nc1ccc(F)cc1)OCCCC[C@@H](C)O2`: the relative growth was inactive: 0.958.

As to `Cc1nc(C)n(C(=O)N2CCOCC2)n1`, the relative growth is inactive: 1.01.

Take `C=CC[C@H](CC(=O)NCCO)C(=O)N[C@@H](COC(=O)[C@@H](CC=C)CC(=O)OC(C)(C)C)Cc1c[nH]c2ccccc12`: the relative growth was inactive: 1.02.

As to `COc1ccc(NC(=O)Nc2ccc3c(c2)CC(=O)N([C@H](C)CO)C[C@H](C)[C@H](CN(C)CC2CCCCC2)O3)cc1`, the relative growth was inactive: 0.967.

In the case of `COc1ccc(NC(=O)N(C)C[C@H]2Oc3c(NC(=O)Nc4cccc5ccccc45)cccc3C(=O)N([C@H](C)CO)C[C@H]2C)cc1`, the relative growth is inactive: 1.05.

As to `Cc1cccc(/C=C2\CS/C(=C\c3cccc(C)c3)C2=O)c1`, the relative growth was inactive: 1.03.

As to `C[C@H](CO)N1C[C@H](C)[C@@H](CN(C)S(=O)(=O)c2ccc(F)cc2)Oc2ccc(NS(=O)(=O)c3cccs3)cc2CC1=O`, the relative growth was inactive: 0.905.

As to `C[C@@H]1CN([C@@H](C)CO)C(=O)c2cc(NC(=O)c3ccncc3)ccc2O[C@@H](C)CCCCO[C@@H]1CN(C)S(=O)(=O)c1cn(C)cn1`, the relative growth was inactive: 0.981.

In the case of `NCC1CCN(Cc2ccccc2)CC1`, the relative growth is inactive: 1.02.

Turning to `CC(C)(C)NC(=O)[C@@H]1C[C@@H]2CCCC[C@@H]2CN1C[C@@H](O)[C@H](Cc1ccccc1)NC(=O)[C@H](CC(N)=O)NC(=O)c1ccc2ccccc2n1`, the relative growth is inactive: 1.02.

With `CCOC(=O)c1c(NC(C)=O)no[n+]1[O-]`, the relative growth was inactive: 0.997.

As for `C[C@@H]1CN([C@@H](C)CO)C(=O)c2cc(NC(=O)NC3CCCCC3)ccc2O[C@@H](C)CCCCO[C@H]1CN(C)C(=O)c1ccncc1`, the relative growth was inactive: 1.

`COc1ccccc1CNC(=O)C[C@H]1C[C@H]2c3cc(NC(=O)NC4CCCC4)ccc3O[C@H]2[C@@H](CO)O1`: the relative growth is inactive: 1.01.

On to `O=C(C[C@@H]1CC[C@H]2[C@@H](COC[C@H](O)CN2S(=O)(=O)c2ccccc2)O1)NCCN1CCCC1`, for which the relative growth is inactive: 1.01.

On to `CC(=O)Nc1ccc(O)cc1`, for which the relative growth is inactive: 1.11.

As to `COc1ccc(CNC(=O)C[C@@H]2CC[C@H]3[C@@H](COC[C@H](O)CN3S(=O)(=O)c3ccc(C)cc3)O2)cc1`, the relative growth was inactive: 0.999.

Turning to `C[C@@H]1CN([C@H](C)CO)C(=O)c2cc(NC(=O)C3CCCCC3)ccc2O[C@@H](C)CCCCO[C@H]1CN(C)S(=O)(=O)c1ccc(F)cc1`, the relative growth is inactive: 0.976.

In the case of `CC(=O)Oc1c(C)c(C)c2c(c1C)CCC(C)(CCCC(C)CCCC(C)CCCC(C)C)O2` (stereo not drawn) [alpha-TOCHOPHERYL ACETATE [4mM]], the relative growth is inactive: 1.07.

Turning to `CO[C@H]1CN(C)C(=O)c2ccc(NC(=O)C3CC3)cc2OC[C@H](C)N(C(=O)CN2CCOCC2)C[C@H]1C`, the relative growth is inactive: 0.997.

`COc1ccc(S(=O)(=O)Nc2ccc3c(c2)C(=O)N([C@H](C)CO)C[C@@H](C)[C@H](CN(C)C(=O)C2CCCCC2)OCCCC[C@H](C)O3)cc1`: the relative growth was inactive: 1.04.

With `Cc1ccc(S(=O)(=O)Nc2ccc3c(c2)CC(=O)N([C@@H](C)CO)C[C@H](C)[C@H](CN(C)S(C)(=O)=O)O3)cc1`, the relative growth was inactive: 0.989.

Consider `Nc1cccc2c1CN(C1CCC(=O)NC1=O)C2=O` (centres undefined), for which the relative growth is inactive: 1.13.

For `CO[C@H]1/C=C\O[C@@]2(C)Oc3c(C)c(O)c4c(c3C2=O)[C@]2(C=C(NC(=O)/C(C)=C\C=C/[C@@H](C)[C@@H](O)[C@@H](C)[C@@H](O)[C@@H](C)[C@@H](OC(C)=O)[C@@H]1C)C4=O)OCC(=O)O2`, the relative growth was inactive: 0.905.

With `c1cnc(N2CC[N+]3(CCCC3)CC2)nc1`, the relative growth is inactive: 0.991.

In the case of `Cc1cccc2c3c(ccc12)C1=C(C(=O)C3=O)C(C)CO1` (centres undefined), the relative growth was inactive: 1.13.

In the case of `CC(C)CC(=O)N[C@H](C(=O)N[C@H](C(=O)N[C@@H](CC(C)C)[C@@H](O)CC(=O)N[C@@H](C)C(=O)N[C@@H](CC(C)C)[C@@H](O)CC(=O)O)C(C)C)C(C)C`, the relative growth is inactive: 1.02.

Turning to `CCS(=O)(=O)NCc1nccc(N(C)C)n1`, the relative growth was inactive: 1.01.

Regarding `CCCCCCCCCCCCCCCCCCCCCCCCC(=O)O`, the relative growth was inactive: 0.989.

As to `COc1ccc(CN(C)C[C@H]2Oc3ccc(NC(=O)Nc4cccc5ccccc45)cc3CC(=O)N([C@H](C)CO)C[C@H]2C)cc1`, the relative growth was inactive: 1.01.

As to `CCN(CC)c1ccc(N2CC=C[C@@]34O[C@@H]5/C=C\CC[C@H](C)OC(=O)[C@@H]5[C@H]3C(=O)N(CCO)[C@@H]4C2=O)cc1`, the relative growth was inactive: 0.986.

Regarding `C[C@H]1CN([C@@H](C)CO)C(=O)c2cc(C#CCc3ccccc3)cnc2O[C@H]1CN(C)C(=O)C1CCOCC1`, the relative growth was inactive: 1.01.

Regarding `COc1ccc(S(=O)(=O)Nc2ccc3c(c2)CC(=O)N([C@H](C)CO)C[C@@H](C)[C@H](CN(C)S(=O)(=O)c2cccs2)O3)cc1`, the relative growth was inactive: 1.01.

For the compound `O=C(CN1CCOCC1)NCC[C@@H]1CC[C@H](NC(=O)Cc2ccccn2)[C@@H](CO)O1`, the relative growth is inactive: 1.

Regarding `C[C@@H]1O[C@@H](O[C@H]2[C@H](O[C@H]3[C@H](O)[C@@H](C(=O)O)O[C@@H](O[C@H]4CC[C@]5(C)[C@H]6CC[C@]78OC[C@@]9(CCC(C)(C)C[C@@H]97)[C@H](O)C[C@@]8(C)[C@]6(C)CC[C@H]5C4(C)C)[C@@H]3OC3O[C@H](CO)[C@@H](O)[C@H](O)[C@H]3O)O[C@H](CO)[C@H](O)[C@@H]2O)[C@H](O)[C@H](O)[C@H]1O` (some centres undefined), the relative growth was inactive: 1.

With `Cc1ccccc1S(=O)(=O)N1[C@@H]2c3cccc(=O)n3C[C@H]1[C@H](CO)[C@H]2C(=O)N1CCOCC1`, the relative growth was inactive: 0.981.

Turning to `C[C@H]1CCCCO[C@H](CN(C)CC2CC2)[C@@H](C)CN([C@@H](C)CO)C(=O)c2cc(NC(=O)Nc3ccccc3)ccc2O1`, the relative growth is inactive: 0.987.

Consider `Cc1noc(C)c1S(=O)(=O)Nc1ccc2c(c1)C(=O)N([C@@H](C)CO)C[C@H](C)[C@@H](CN(C)C(=O)Nc1ccccc1)O2`, for which the relative growth is inactive: 0.998.

For `CC(C)NC(=O)Nc1cccc2c1O[C@@H](CN(C)Cc1ccc(C(=O)O)cc1)[C@@H](C)CN([C@@H](C)CO)C2=O`, the relative growth is inactive: 0.97.

Consider `C[C@@H]1CN([C@H](C)CO)C(=O)Cc2cc(NC(=O)NC3CCCCC3)ccc2O[C@H]1CN(C)Cc1ccc(C(F)(F)F)cc1`, for which the relative growth was inactive: 0.997.

For the compound `C[C@@H]1CN([C@@H](C)CO)C(=O)c2cccc(NC(=O)C3CC3)c2O[C@H]1CN(C)S(=O)(=O)c1cccs1`, the relative growth was inactive: 0.966.

For the compound `CC(C)(C)OC(=O)CC[C@]12N=C(c3ccc(OCCCO)cc3)O[C@H]1c1ccccc1N(Cc1ccccc1)C2=O`, the relative growth was inactive: 0.983.

For the compound `COc1nc(N)nc2c1ncn2[C@@H]1O[C@H](CO[P@@](=O)(N[C@@H](C)C(=O)OCC(C)(C)C)Oc2cccc3ccccc23)[C@@H](O)[C@@]1(C)O`, the relative growth is inactive: 1.01.

Consider `CC(C)C#Cc1ccc2c(c1)O[C@H](CN(C)S(=O)(=O)c1cn(C)cn1)[C@@H](C)CN([C@H](C)CO)S2(=O)=O`, for which the relative growth is inactive: 0.995.

For the compound `C[C@@H]1CCCCO[C@H](CN(C)S(=O)(=O)c2ccc(Cl)cc2)[C@@H](C)CN([C@@H](C)CO)C(=O)c2cc(NC(=O)c3ccncc3)ccc2O1`, the relative growth is inactive: 0.987.

Regarding `C[C@H](CO)N1C[C@H](C)[C@H](CN(C)Cc2ccncc2)OCCCC[C@H](C)Oc2ccc(NC(=O)Nc3cccc4ccccc34)cc2C1=O`, the relative growth is inactive: 1.03.

With `O=C(C[C@@H]1CC[C@H](NS(=O)(=O)c2ccc(F)cc2)[C@H](CO)O1)NCc1ccc(Cl)c(Cl)c1`, the relative growth was inactive: 1.02.

For the compound `CC(C)(C)C(=O)N1CCNCC1`, the relative growth is inactive: 0.996.

For the compound `Cl.NC(Cc1ccc(Cl)cc1)C(=O)O` (racemic), the relative growth was inactive: 0.986.

For the compound `COc1ccc(S(=O)(=O)N(C)C[C@H]2Oc3ccc(NC(=O)Cc4ccccc4)cc3C(=O)N([C@H](C)CO)C[C@@H]2C)cc1`, the relative growth is inactive: 1.01.

Consider `C[C@@H]1CCCCO[C@@H](CN(C)Cc2ccc(Cl)c(Cl)c2)[C@@H](C)CN([C@@H](C)CO)C(=O)c2cc(NS(=O)(=O)c3cn(C)cn3)ccc2O1`, for which the relative growth is inactive: 0.996.

On to `C[C@@H]1CN([C@@H](C)CO)C(=O)c2cccc(NC(=O)c3ccc(-c4nccs4)cc3)c2O[C@@H]1CN(C)S(C)(=O)=O`, for which the relative growth is inactive: 1.02.

For `CCN(CC)c1ccc(N2CC=C[C@@]34O[C@@H]5C=CCOC(=O)[C@@H]5[C@H]3C(=O)N([C@@H](CO)C(C)C)[C@@H]4C2=O)cc1`, the relative growth is inactive: 0.973.

(Values after the supplement of paper PMC9446081.)
